# According to PubChem BioAssay AID686970 (National Center for Advancing Translational Sciences (NCATS), 2013):
# In all, about 360,000 compounds went through this assay and about 6,000 (1.7%) were called active. The shares of active, inactive and inconclusive entries below differ from those in the screen. The call rests on the fitted dose curve; in most records, active means well fitted cell-killing curve with a large enough effect; inconclusive means small, poorly fitted or top-dose-only effect, or effect the other way; inactive means flat fitted curve, though single readings scatter. Potencies of inconclusive entries are left out as doubtful fits.
# Assay: qHTS for induction of synthetic lethality in tumor cells producing 2HG: qHTS for the HT-1080-NT fibrosarcoma cell line;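 further: NT is the 2HG producing partner of a matched IDH1 knockdown line; nearly all actives have a fitted effect of over 55% in size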;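 on activity, negative = less viability: 0% = DMSO-treated cells and -100% = media-only wells without cells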
# Conditions: HT-1080-NT fibrosarcoma viability, CellTiter-Glo ATP luminescence, 48 h; activity, negative = less viability: at 46.1 µM (top of the series) unless noted
# Summary of the method: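 Viability by CellTiter-Glo luminescence after 48 h compound exposure at 37C of HT-1080-NT cells (750/well, RPMI, 5% FBS). % activity scaled between DMSO wells and medium-only wells, then curve-fitted and categorized by curve class.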
# Potency means the concentration at half of the fitted maximal effect; tags describe the fitted curve by direction and shape.
SMILES,Potency,"activity, negative = less viability"
O=C(NN=C1CCC(=NNC(=O)c2cccnc2)CC1)c1cccnc1,"inconclusive [cytotoxic, single point]",
COc1ccc(-n2nc3c(N4CCC(C(=O)NCc5ccccc5)CC4)nnc(C)c3c2C)cc1,"inconclusive [cytotoxic, single point]",
CCOc1ccc(S(=O)(=O)N2CCC(C(=O)NCCc3ccc(OC)c(OC)c3)CC2)cc1,inactive,
COc1ccc(C(CC(=O)Nc2ccccn2)N2Cc3ccccc3C2=O)cc1OC (stereo unspecified),inactive,
Fc1ccc2[nH]c3c(N4CCc5ccccc5C4)ncnc3c2c1,active: 10.3 µM,
Cc1sc2nc(COC(=O)c3cccc(S(=O)(=O)N(C)c4ccccc4)c3)[nH]c(=O)c2c1C,,inconclusive: -19.9% [cytotoxic]
COc1ccc(C(=O)c2c(C(F)(F)F)oc3c2C(=O)c2ccccc2C3=O)cc1,active: 7.31 µM,
COc1cccc(NC(=S)NC(=O)/C=C/c2ccco2)c1,active: 20.6 µM,
CC(C)C[C@@H](CN1CCC[C@H]1CN1C(=O)C(=O)NC[C@@H]1Cc1ccc(O)cc1)N1C[C@H](Cc2ccccc2)N(CC2CCCCC2)C(=O)C1=O,"inconclusive [cytotoxic, single point]",
CC(C)CC(=O)Nc1ccc(C(=O)NNC(=S)NC(=O)C2CCCCC2)cc1,active: 7.94 µM,
COc1ccccc1-c1sc2ccccc2c1-c1ccc(OCCN2CCCCC2)cc1,"inconclusive [cytotoxic, single point]",
O=C(NCc1ccccc1)C(c1ccc(C(F)(F)F)cc1)n1c(=O)c(-c2cc3ccccc3[nH]2)nc2ccccc21 (stereo unspecified),"inconclusive [cytotoxic, single point]",
CCN(CC)S(=O)(=O)c1cccc(NC(=O)Nc2cccc(C(F)(F)F)c2)c1,"inconclusive [cytotoxic, single point]",
Cc1ccc(CNC(=O)C2CCC(=O)N(CCCN3CCOCC3)C2)cc1 (stereo unspecified),inactive,
CCN(CC)CCCNC1=C(Cl)C(=O)c2ccccc2C1=O,"inconclusive [cytotoxic, single point]",
COC(=O)c1c(C)n(-c2ccc(OC)cc2)c2ccc(O)cc12,"inconclusive [cytotoxic, single point]",
CN1CCN(CCCC(=O)c2ccc(C3CCCC3)cc2)CC1,"inconclusive [cytotoxic, single point]",
COc1ccccc1N1CCc2c(C)nc3c(OC)cccc3c21,"inconclusive [cytotoxic, single point]",
CCOc1ccc(-c2nnc(SCC(=O)Nc3ccc4c(c3)c3ccccc3n4CC)n2N)cc1,"inconclusive [cytotoxic, single point]",
COc1ccccc1Oc1cn[nH]c1-c1ccc(O)cc1O,inactive,
CC(C)c1ccc(-c2nn(-c3ccccc3)cc2C(=O)NCC2CCCO2)cc1 (stereo unspecified),"inconclusive [cytotoxic, single point]",
CC(C)NC(=O)C1CCN(C2CCN(CC3CC=CCC3)CC2)CC1 (stereo unspecified),"inconclusive [cytotoxic, partial curve]",

SMILES,Potency,"activity, negative = less viability"
O=C(NCCc1ccccc1)C1CCCN1C(=O)Nc1ccc(Cl)cc1 (stereo unspecified),inactive,
CCC/C(=C1/c2ccccc2C(=O)N1c1ccccc1)c1ccc2[nH]ccc2c1,"inconclusive [cytotoxic, partial curve]",
CN(C)CCC(c1ccc(Br)cc1)c1ccccn1 (stereo unspecified),"inconclusive [cytotoxic, partial curve]",
CC(C)Cc1cc(CN2CCC(CO)(Cc3cccc(C(F)(F)F)c3)CC2)[nH]n1,"inconclusive [cytotoxic, single point]",
COc1ccccc1C(=O)NCC(=O)N/N=C/c1ccc2c(c1)OCO2,"inconclusive [cytotoxic, single point]",
COc1ccccc1COc1cccn2c(N(C)C(=O)CCC3CCCC3)c(C)nc12,"inconclusive [cytotoxic, single point]",
Cn1nnnc1SCC(=O)Nc1ncc(Cl)cc1Cl,inactive,
CC(=O)NC(c1cccc(F)c1)c1nc(-c2cnn(C)c2)cs1 (stereo unspecified),"inconclusive [rising, partial curve]",
N#Cc1cnn2ccc(-c3cc(N4CCOCC4)ccc3[N+](=O)[O-])nc12,"inconclusive [cytotoxic, single point]",
CN(C(=O)c1cccc(NC(=O)Cc2ccc(NC(=O)C3CCN(C(=O)CCc4ccccc4)CC3)cc2)c1)C1CCCCC1,inactive,
COc1ccc([C@H]2C[C@H](O)[C@@H](n3cc(-c4ccc(F)cc4)nn3)CN2C(=O)c2cccs2)cc1,inactive,
CCC(=O)c1ccccc1OCCCN1CCC(Cc2ccccc2)CC1,active: 18.4 µM,
COc1ccc(C(C[N+](=O)[O-])C2(c3ccc(OC)c(OC)c3)C(=O)c3ccccc3C2=O)cc1 (stereo unspecified),"inconclusive [cytotoxic, single point]",
Cc1c(CCOC(=O)C23CC4CC(CC(C)(C4)C2)C3)sc[n+]1CC(=O)c1ccccc1,"inconclusive [cytotoxic, single point]",
CCc1ccc2nc(N(CCCN(C)C)C(=O)c3ccc4c(c3)OCCO4)sc2c1,active: 20.6 µM,
Cc1ccc(S(=O)(=O)N2C[C@H]3[C@H]4C(=O)N(C5CCCCC5)C(=O)[C@H]4CC(=O)[C@H]3[C@@H]2c2cccc3ccccc23)cc1,"inconclusive [rising, single point]",
Cc1cccc(/C=C/C(=O)c2cc(Br)ccc(=O)c2O)c1,"inconclusive [cytotoxic, single point]",
COc1cc(/C=N/NC(=O)c2ccncc2)ccc1O,"inconclusive [rising, partial curve]",
CC1CN(Cc2cn(C)nc2-c2ccc(Oc3ccccc3)cc2)CCN1C (stereo unspecified),"inconclusive [cytotoxic, single point]",
CN1CCN(C2=C(Cl)C(=O)c3ccccc3C2=O)CC1,"inconclusive [cytotoxic, single point]",
CN1CCN(C(c2ccc(Br)cc2)c2cc(Cl)c3cccnc3c2O)CC1 (stereo unspecified),"inconclusive [cytotoxic, partial curve, poor fit]",
COc1ccc(N2C(=S)NC3N2C(=S)NC3(C)c2ccccc2)cc1 (stereo unspecified),active: 16.4 µM,

SMILES,Potency,"activity, negative = less viability"
COc1ccc(CCCNC(=O)C2(C)Cc3c(-c4cccc(C(N)=O)c4)ccnc3O2)cc1 (stereo unspecified),"inconclusive [cytotoxic, partial curve]",
O=C(Nc1ccc(S(=O)(=O)N2CCCC2)cc1)c1ccc(OCC2CCCO2)cc1 (stereo unspecified),"inconclusive [cytotoxic, single point]",
CCOC(=S)SCC(=O)Nc1ncc(C)s1,"inconclusive [cytotoxic, partial curve]",
Cc1nnc(N/N=C/c2ccccn2)[nH]c1=O,"inconclusive [cytotoxic, full curve]",
COc1ccccc1/C=C/CN1CCCC(CO)(CCc2ccccc2)C1 (stereo unspecified),"inconclusive [cytotoxic, single point]",
O=C(NCc1ccccc1)C(=O)NCC1COc2ccccc2O1 (stereo unspecified),active: 16.4 µM,
COc1ccc(C(=O)C[n+]2ccc(N)c(C)c2C)cc1,"inconclusive [cytotoxic, partial curve]",
CCN(CC)S(=O)(=O)c1cccc(C(=O)N/N=C/c2ccccn2)c1,"inconclusive [cytotoxic, full curve, poor fit]",
Oc1c(Cl)cc(Cl)c2cccnc12,"inconclusive [cytotoxic, partial curve]",
Cc1ccc(C(NC(=O)C2CCN(Cc3ccc(Oc4ccccc4)cc3)CC2)c2ccccn2)cc1 (stereo unspecified),active: 14.6 µM,
O=C(NCc1cccnc1)c1ccc(-c2cc3ccccc3oc2=O)cc1,"inconclusive [cytotoxic, single point]",
O=C1c2ccccc2/C(=C\C#Cc2ccccn2)N1c1ccccc1,"inconclusive [cytotoxic, single point]",
Cc1ccc2nc(-c3ccc(NC(=O)COC(=O)c4ccc(=O)[nH]c4)cc3)sc2c1,"inconclusive [cytotoxic, single point]",
Cc1nc2c(C)cccn2c(=O)c1NC(=O)c1ccc(Br)o1,inactive,
CC(C)(C)OC(=O)C(Cc1ccc(OC(C)(C)C)cc1)NC(=O)CNC(=O)OCc1ccccc1 (stereo unspecified),inactive,
O=C1CC[C@@H](C(=O)N2CSC[C@H]2C(=O)O)N1,"inconclusive [rising, single point]",
CCOC(=O)N1CCC(N(C(=O)Nc2ccc(Cl)c(Cl)c2)C(C)CC)CC1 (stereo unspecified),"inconclusive [cytotoxic, single point]",
CCc1ccc(NC(=O)CN2CCCN(S(=O)(=O)c3ccc(F)cc3)CC2)cc1,"inconclusive [cytotoxic, single point]",
c1ccc(C[C@H]2CN=C(Nc3ccccc3)N2CC2CCCC2)cc1,"inconclusive [cytotoxic, partial curve]",
CC(NC(=O)/C(C#N)=C/c1ccc(Cl)c([N+](=O)[O-])c1)c1ccccc1 (stereo unspecified),"inconclusive [cytotoxic, single point]",
CC(C)CCSc1nc(N2CCOCC2)c2c(c1C#N)CC(C)(C)OC2,"inconclusive [cytotoxic, single point]",
O=C(c1ccc(NS(=O)(=O)/C=C/c2ccccc2)cc1)N1CCCCC1,"inconclusive [cytotoxic, partial curve]",
